In PMC12136788:
This is one part of the list.

T1: UNK ZnF1-3 (human, UniProt Q9C0B0 31-174)
T1 sequence: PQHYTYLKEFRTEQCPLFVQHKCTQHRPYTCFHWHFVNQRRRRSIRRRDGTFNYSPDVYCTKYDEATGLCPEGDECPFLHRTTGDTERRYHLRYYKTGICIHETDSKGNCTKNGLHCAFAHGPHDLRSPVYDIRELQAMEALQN

B1: chr11:35622686:35622687:-_ENSMUSG00000018848_ENSMUST00000018992|mus_hu|motif|central (ssRNA)
RNA: GGGAGUUCUACAGUCCGACGAUCGAAAGCAGUUGCCAGCUCAUAUAUAUAAUCACAGAGAGUGUGGAGAAAUAAGUCAUCGGAAAUCUUUUGCAGAAUCUCAGGGAACCGUAAAAUGCACCGGCCUAGUUUCCAUUCCUUCUCCAACAGAGGAUUGAGCAUCA
B2: chr17:64801638:64801639:+_ENSG00000154229_ENST00000413366|hu_mus|hu_hu_hu_mus_False|28_108 (ssRNA)
RNA: GGGAGUUCUACAGUCCGACGAUCUAUAAAUACAUAUACAUAUGUACACAUAUAUAGUAAAACCCUAGUUAAACGUGUAAAGUAGCCAUUCAUUUUUAAAAUUACAUCUACAUUUAAAAAUUAAUAUAUCUGAUAGAGUGCCAGCAACAGAGGAUUGAGCAUCA
B3: 53240759_53241010_1544_CDS_ENSG00000126012_ENST00000404049|human|control|control (ssRNA)
RNA: GGGAGUUCUACAGUCCGACGAUCAUACUCAACAGUCACAUCUUCCUCAAUGCUAUUUACCAGCCUCCAGAACUCCUUCUCCACAAGUUCUGUGGGCACCAUAUGCACGGGCAUGUUGAAGUAGUCAGCUUUAAAGGAGUCGGCCAACAGAGGAUUGAGCAUCA
B4: chr2:31460152:31460153:+_ENSMUSG00000026843_ENSMUST00000055244|mus_hu|FALSE|FALSE (ssRNA)
RNA: GGGAGUUCUACAGUCCGACGAUCAUUCUGGAUCUUUUUGAUCAUUUCCCCGUUUCUUCCUAUUACAAUCCCCACAGCAAACCUAGGCACAGAUACCUCUAUACUGCCUCCUCCCAUUCGAGAGUUGAAAUCGCCGCGUACACCCAACAGAGGAUUGAGCAUCA
B5: chr12:89993059:89993060:-_ENSG00000070961_ENST00000261173|hu_mus|FALSE|FALSE (ssRNA)
RNA: GGGAGUUCUACAGUCCGACGAUCAGGUAUCUCCUCCUUCUGGGUUCCAUGACCAGCUUCUUUUAGAAACUUUAAGCGGCUGGUUGGAAUGGUUGAAAUAAGCUGGCCCCAGAGUAAGGUCCCCAUUCCCAGGAAUAUCGACCACAACAGAGGAUUGAGCAUCA
B6: chr7:141450121:141450122:+_ENSG00000106028_ENST00000265304|hu_mus|hu_hu_hu_mus_True|28_28 (ssRNA)
RNA: GGGAGUUCUACAGUCCGACGAUCUCAUCCGUUCUAUGCCUUUUCUUUUGUCUGGUCACUCAGAAAUAUAAUGUUAUCAGCUAUGAUUGUUGUUGCUUGCCGCCUCACAUUAUUUUUAUCCAUGUACUCGCCAUAGUCCACUUUCAACAGAGGAUUGAGCAUCA
B7: chr1:184023491:184023492:+_ENSG00000198860_ENST00000361641|hu_hu|FALSE|FALSE (ssRNA)
RNA: GGGAGUUCUACAGUCCGACGAUCCAUGAGGUCCAGGUAAACCAAGAACGCUACAUAAACUUGGGUGGCAUCUCCUAUAUCUAAUUCCAUCAUUUCUAGAUACUUAGGGUGAGUGCCCAUCCAGGCGUCCUCAGGGGCCCACGACAACAGAGGAUUGAGCAUCA
B8: chr7:109302599:109302600:-_ENSMUSG00000063550_ENSMUST00000070165|mus_hu|FALSE|FALSE (ssRNA)
RNA: GGGAGUUCUACAGUCCGACGAUCGGAAUCUUCAUCUCCAUCCUGCUGGUGAUUCUCAUCAACAGGUUUGCUUAGGAAACUAAAUCUCUCUCCAUUUUCUGGAUAUUCAGAUGGUGAAGCUAGAUUUUCUGAAUCACGAUUAACCAACAGAGGAUUGAGCAUCA
B9: chr1:120459247:120459248:-_ENSG00000134250_ENST00000256646|hu_mus|motif|central (ssRNA)
RNA: GGGAGUUCUACAGUCCGACGAUCCCGAGCCACAUCCCGGGGAAGGCGGUCCAUGUGGUCAGUGAUGUCCCGGUUGGCAAAAUGGUCGGACAGGAUUUUGGCCGCUUCAUAACUUCCCUCUCGGGCAGCAAGAAACAAAGGUGUCAACAGAGGAUUGAGCAUCA
B10: chr19:36946997:36946998:+_ENSMUSG00000024811_ENSMUST00000025729|mus_hu|motif|central (ssRNA)
RNA: GGGAGUUCUACAGUCCGACGAUCAUAUUUUCCUUUUGCUGCUGCUUCAUGUAAAGGUGUAAAUUUCCAUAAAUCAGCGGCAUUAACGGCUGCUCCAUGUUUAACAAGAAGUUCUGCAACUUCAUAAUGUCCAUAAGAACAUGCCAACAGAGGAUUGAGCAUCA
B11: 45705241_45705361_2046_CDS_ENSMUSG00000023944_ENSMUST00000024739|mouse|control|control (ssRNA)
RNA: GGGAGUUCUACAGUCCGACGAUCACCAGAGGAGAGCAGAGCAGUUUCAAACAGCAGCACCACCAGGUCCUUGACAGCUUUGUCGUUUUUGUCUGCCUCAGCCUUCUGCCGCAGGGUCUCCACGAUGGGGUGGUCAGGGUUGAUCAACAGAGGAUUGAGCAUCA
B12: 87490901_87491657_411_3pUTR_ENSMUSG00000025613_ENSMUST00000026704|mouse|control|control (ssRNA)
RNA: GGGAGUUCUACAGUCCGACGAUCCGAUAUUACCUCUGAUACUGACAGGCCAAUCCUCAGAAGUUCUUCAGCUAGUUCCAGAAGAGCCCCAGCGAACACCAGAACGAAGUUUGUGCCAUCACCAACCUCUUGUUCUUGCAUAUGCAACAGAGGAUUGAGCAUCA
B13: chr6:114281168:114281169:-_ENSG00000196591_ENST00000368632|hu_hu|hu_hu_hu_mus_True|68_78 (ssRNA)
RNA: GGGAGUUCUACAGUCCGACGAUCUUCCAUUUUUCGGUAUAAACCAUAAUUUAGCAGCAAGUUAUGGGUCAUGCGGAUUCUAUGAGGCUUCAUGGGAUGACCCUGGCCAUAAUAAUAAUUGCCAAUAUCACCAUCAUAGUAGUACAACAGAGGAUUGAGCAUCA
B14: 72853506_72853626_654_CDS_ENSMUSG00000034563_ENSMUST00000085350|mouse|control|control (ssRNA)
RNA: GGGAGUUCUACAGUCCGACGAUCAAAGUGGCGUUUACUUGGCUCCUUGGAGGGCUCAUCUUCCGGCUCAGCGAGUGGAGGCUCCUCAGACUCUGAGAUAGAAACGGUCUUCUUCCUGUUGCGGCGCCGUCUAGGAGCAGGGCUCAACAGAGGAUUGAGCAUCA
B15: chr5:67447025:67447026:+_ENSMUSG00000037736_ENSMUST00000038188|mus_hu|FALSE|FALSE (ssRNA)
RNA: GGGAGUUCUACAGUCCGACGAUCCUGCACCUAUAUGGAACCCACAUGCAAAGAACCCAUCUAGCAUGUAAUAAAUAAUCGCUAGCCAUACUCAAUAAGACACGGAAAAAUUAUUGCUUACAUAACAGAAAAACAUCUACUUGACAACAGAGGAUUGAGCAUCA
B16: chr8:74858975:74858976:-_ENSG00000154582_ENST00000284811|hu_mus|hu_hu_hu_mus_True|38_68 (ssRNA)
RNA: GGGAGUUCUACAGUCCGACGAUCGACCUUGUAGGUAAAAUACAUGCACACUUUUGAUAGCACAUGUGAAGGUAUCUCUCUAAAAUUGACCUCGUUGGUUUCGUUCUCAGCAAACUGACCUGGACCACUCAACAUAGCCUUUAUCAACAGAGGAUUGAGCAUCA
B17: chr7:140404665:140404666:+_ENSG00000090266_ENST00000247866|hu_hu|hu_hu_hu_mus_False|28_28 (ssRNA)
RNA: GGGAGUUCUACAGUCCGACGAUCUGCUCCUACUCGUCCAGAGAGUUUACAGUGUCAGUCCUCGUCAUCAGGAGGGAUUCCCAGUUCUUCAUCUGUCCACUGUGAAGGAUCAGGAUAUGAAAAGUGACCCAGCACAGCAUCCGACAACAGAGGAUUGAGCAUCA
B18: chr6:29525140:29525141:-_ENSMUSG00000012535_ENSMUST00000012679|mus_mus|FALSE|FALSE (ssRNA)
RNA: GGGAGUUCUACAGUCCGACGAUCAUUGGUUUUGUAUAAAUGUUCUCCUAGUCGGUACCAAAAGUUAAAGGAAAUUUCUACUACCUCAUACUGAGGGUGGCCUGCACAGAUAAGAAGCAAUUCCAAAGUUCGAAGAUCUCCCAGCAACAGAGGAUUGAGCAUCA
B19: chr8:72619372:72619373:-_ENSMUSG00000002341_ENSMUST00000002412|mus_mus|motif|central (ssRNA)
RNA: GGGAGUUCUACAGUCCGACGAUCAAUAAAACCAAAGAAGGCUGGGCAGACAGUUCGCUGAGUUCCAGGUUAGCCUGGUCGGUAUAGCAAGUUCCAGGCCAGCCAGGGCCGCACAGUGAGGCCCUGUCUCAAAACAAAAACAACCAACAGAGGAUUGAGCAUCA
B20: 100652165_100655875_1851_CDS_ENSMUSG00000020919_ENSMUST00000004143|mouse|control|control (ssRNA)
RNA: GGGAGUUCUACAGUCCGACGAUCCAAGCCCCGGUUGCUCUGUACUUCAGCCUUGAAUUUCAUGUUGAGCGCUUCACACAGCUGCGGCCACAGCACCUUGUCAGGCACGGCAAAUGGCACCCUGCCAGGCUCUGCAAAGGCGUUCAACAGAGGAUUGAGCAUCA
B21: chrX:70347820:70347821:+_ENSG00000184634_ENST00000374080|hu_hu|FALSE|FALSE (ssRNA)
RNA: GGGAGUUCUACAGUCCGACGAUCUAGCCCCGUGUAGGUGAAGGUGUGAGCUGCAGGGUUCUCUAGAGUGUCGAUCAUGAACUCAGGUGCCCAGCGCAUAUUUGAUUCCGAUGGCUCCACGUUGCAGUAGAUGGUGUUCUUCACCAACAGAGGAUUGAGCAUCA
B22: chr1:22412998:22412999:+_ENSG00000070831_ENST00000400259|hu_hu|FALSE|FALSE (ssRNA)
RNA: GGGAGUUCUACAGUCCGACGAUCUAUCUCAGGCACCCACUUUUCUUUCACGUUUUCAAAUGAAGAUGGAGAGACCACUGAAAAACAGACUAGAAAUACAUCUGUUUGUGGAUAACUCAGCGGUCGUAAUCUGUCAUAAUCCUCCAACAGAGGAUUGAGCAUCA

The binders below were run against T1, UNK ZnF1-3 (assay: nsRBNS (natural sequence RNA bind-n-seq); RBNS binding buffer (assumed for nsRBNS): 25 mM Tris pH 7.5, 150 mM KCl, 3 mM MgCl2, 0.01% Triton X-100, 500 ug/ml BSA, 20 U/ml SUPERase-In, 4 C; UNK is unkempt and MSI1 is Musashi-1; names of the RNAs are library labels; protein concentration not given here; high values mean tight binding).

Row | Binder | binding signal
1 | B1 | 1.44 enrichment R
2 | B2 | 1.96 enrichment R
3 | B3 | 1.18 enrichment R
4 | B4 | 1.02 enrichment R
5 | B5 | 0.956 enrichment R
6 | B6 | 0.425 enrichment R
7 | B7 | 0.967 enrichment R
8 | B8 | 0.353 enrichment R
9 | B9 | 1.24 enrichment R
10 | B10 | 0.707 enrichment R
11 | B11 | 1.85 enrichment R
12 | B12 | 0.926 enrichment R
13 | B13 | 1.05 enrichment R
14 | B14 | 0.828 enrichment R
15 | B15 | 1.42 enrichment R
16 | B16 | 0.642 enrichment R
17 | B17 | 1.2 enrichment R
18 | B18 | 1.11 enrichment R
19 | B19 | 0.712 enrichment R
20 | B20 | 0.799 enrichment R
21 | B21 | 1.16 enrichment R
22 | B22 | 1.03 enrichment R
